Results published in PubChem BioAssay AID504333 (National Center for Advancing Translational Sciences (NCATS), 2011).
Hit rate of the full screen: of about 360,000 compounds, about 16,000 (4.4%) were called active. This list was built around the results that the source calls inconclusive (neither active nor inactive); the mix of calls is not that of the screen. Calls follow the shape of the dose curve; as a rule, active = well fitted inhibition curve with a large enough effect; inconclusive = small, poorly fitted or top-dose-only effect; inactive = no such curve, though single readings can be large or run the other way. Where the call is inconclusive, the potency comes from a doubtful curve fit.

What follows are compounds tested against Bromodomain adjacent to zinc finger domain protein 2B (Homo sapiens) (UniProt Q9UIF8) (assay: qHTS Assay for Inhibitors of BAZ2B). Conditions: AlphaScreen BAZ2B-H3K14Ac peptide displacement; activity change, negative = inhibition: at 114 µM (top of the series) unless noted.
How it was run: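 Compounds, titrated to a top concentration of 110 uM, were incubated 30 min at room temperature with preformed BAZ2B/acetyl-K14 H3 peptide complex (50 nM each). Proximity signal was measured by AlphaScreen after 20 min with beads.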
% is scaled to controls: 0 for no effect and ±100 for the full control effect; potency is read from the fitted curve at half-maximal effect; tags tell the direction and shape of the fitted curve.
Also: nearly all actives have a fitted effect of over 60% in size.

Chain of UniProt Q9UIF8 (Q9UIF8 whole entry, looked up, the tested form may be a part): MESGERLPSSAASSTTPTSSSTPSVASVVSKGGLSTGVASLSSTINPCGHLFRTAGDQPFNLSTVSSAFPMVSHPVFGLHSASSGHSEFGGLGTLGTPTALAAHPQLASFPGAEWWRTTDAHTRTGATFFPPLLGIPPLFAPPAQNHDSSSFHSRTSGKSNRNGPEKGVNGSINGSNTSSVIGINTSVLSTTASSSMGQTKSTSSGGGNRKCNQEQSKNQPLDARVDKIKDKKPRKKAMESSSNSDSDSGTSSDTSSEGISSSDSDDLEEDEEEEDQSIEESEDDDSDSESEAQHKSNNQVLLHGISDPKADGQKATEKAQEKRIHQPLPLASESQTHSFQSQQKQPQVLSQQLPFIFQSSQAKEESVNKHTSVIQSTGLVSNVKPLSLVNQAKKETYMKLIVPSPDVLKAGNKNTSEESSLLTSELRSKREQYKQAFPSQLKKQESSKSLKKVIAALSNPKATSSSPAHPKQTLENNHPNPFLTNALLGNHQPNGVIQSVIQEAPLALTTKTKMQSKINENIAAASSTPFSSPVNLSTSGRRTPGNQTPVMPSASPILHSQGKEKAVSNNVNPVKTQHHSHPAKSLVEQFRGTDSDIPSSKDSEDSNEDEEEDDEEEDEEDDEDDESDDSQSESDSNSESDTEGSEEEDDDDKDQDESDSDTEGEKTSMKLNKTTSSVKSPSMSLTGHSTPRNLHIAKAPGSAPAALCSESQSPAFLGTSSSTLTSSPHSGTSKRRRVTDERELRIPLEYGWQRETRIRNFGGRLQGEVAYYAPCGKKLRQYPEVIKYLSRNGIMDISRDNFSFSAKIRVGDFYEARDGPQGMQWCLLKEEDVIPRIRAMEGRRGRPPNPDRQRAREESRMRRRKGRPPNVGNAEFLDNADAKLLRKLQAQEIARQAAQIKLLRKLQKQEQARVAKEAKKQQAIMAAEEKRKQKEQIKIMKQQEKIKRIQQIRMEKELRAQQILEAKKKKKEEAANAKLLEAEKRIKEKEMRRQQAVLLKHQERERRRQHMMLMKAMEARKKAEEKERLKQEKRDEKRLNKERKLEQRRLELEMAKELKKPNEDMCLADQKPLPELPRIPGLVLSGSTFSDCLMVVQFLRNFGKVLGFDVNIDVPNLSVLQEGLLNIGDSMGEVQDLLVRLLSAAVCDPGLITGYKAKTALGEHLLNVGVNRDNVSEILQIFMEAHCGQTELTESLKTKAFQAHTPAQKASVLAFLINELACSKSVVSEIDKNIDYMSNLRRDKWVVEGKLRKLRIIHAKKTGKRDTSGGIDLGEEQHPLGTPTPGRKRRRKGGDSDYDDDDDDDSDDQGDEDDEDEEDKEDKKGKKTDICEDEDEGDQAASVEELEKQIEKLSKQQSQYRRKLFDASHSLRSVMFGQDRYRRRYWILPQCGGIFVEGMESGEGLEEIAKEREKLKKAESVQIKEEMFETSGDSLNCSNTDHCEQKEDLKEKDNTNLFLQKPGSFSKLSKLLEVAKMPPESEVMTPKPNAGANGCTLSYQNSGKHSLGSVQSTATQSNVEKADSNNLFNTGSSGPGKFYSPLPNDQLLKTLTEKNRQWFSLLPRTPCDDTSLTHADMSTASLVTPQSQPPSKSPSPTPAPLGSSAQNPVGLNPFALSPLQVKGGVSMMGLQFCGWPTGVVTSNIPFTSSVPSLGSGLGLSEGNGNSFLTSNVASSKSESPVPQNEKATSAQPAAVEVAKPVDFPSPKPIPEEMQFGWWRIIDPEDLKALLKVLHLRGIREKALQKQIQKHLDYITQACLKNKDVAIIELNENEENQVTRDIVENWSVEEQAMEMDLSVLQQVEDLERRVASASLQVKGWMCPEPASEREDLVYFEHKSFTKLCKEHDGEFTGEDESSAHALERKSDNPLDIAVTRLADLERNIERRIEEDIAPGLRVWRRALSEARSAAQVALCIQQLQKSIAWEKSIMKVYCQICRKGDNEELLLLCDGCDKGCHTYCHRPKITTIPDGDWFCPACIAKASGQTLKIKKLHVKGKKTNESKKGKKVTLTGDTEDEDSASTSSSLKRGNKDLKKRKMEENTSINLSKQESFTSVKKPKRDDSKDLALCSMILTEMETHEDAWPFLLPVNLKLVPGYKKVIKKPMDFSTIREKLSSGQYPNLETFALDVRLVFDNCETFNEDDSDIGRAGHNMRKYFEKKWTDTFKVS

**Q.** For `COc1ccccc1Nc1ncccc1[N+](=O)[O-]`, which Potency is on record?
**A.** active: 31.6 µM

**Q.** For `CCN(CCC(=O)O)c1ccccc1`, which Potency is on record?
**A.** inconclusive: 89.1 µM [inhibitor, single point]

**Q.** How did the Potency turn out when `Cc1cc(C(=O)CSc2ccc(Cl)cc2)cc(C)c1OC(=S)N(C)C` was run?
**A.** inconclusive: 14.1 µM [inhibitor, single point]

**Q.** Which Potency does the source give for `COc1ccc(NCc2cccn2-c2nnc(N3CCC(C)CC3)s2)c(OC)c1` here?
**A.** inconclusive: 35.5 µM [inhibitor, single point]

**Q.** Which Potency does the source give for `Cc1cccc(-c2nc(S(=O)(=O)c3ccccc3)c(N3CCN(c4ccccc4)CC3)o2)c1` here?
**A.** inactive

**Q.** How did the Potency turn out when `Cc1ccc(C(=O)Nc2cccc(C(F)(F)F)c2)cc1Nc1cnccn1` was run?
**A.** inconclusive: 79.4 µM [inhibitor, single point]

**Q.** With `O=C(/C=C/Nc1ccccc1Oc1ccccc1)c1ccco1` as the compound, how does the Potency read?
**A.** inconclusive: 56.2 µM [inhibitor, partial curve]

**Q.** `Cc1[nH]c2c(C)cccc2c1CC(=O)O` was tested. Which Potency did it give?
**A.** inconclusive: 7.08 µM [inhibitor, partial curve, poor fit]

**Q.** For `Cc1ccccc1-n1c(C)cc(/C=N/NC(=O)c2ccncc2)c1C`, which Potency is on record?
**A.** inconclusive: 79.4 µM [inhibitor, single point]

**Q.** Which Potency does the source give for `CSc1ccccc1C(=O)Nc1cc(C)ccc1C` here?
**A.** inactive

**Q.** How did the Potency turn out when `Cc1ccc(Cl)cc1N1CCN(C(=O)c2cnc3c(-c4ccc(F)cc4)c(C)nn3c2C)CC1` was run?
**A.** inactive

**Q.** For `Cc1cccc(S(=O)(=O)c2cn(Cc3ccc(F)cc3)c3cc(N4CCOCC4)c(F)cc3c2=O)c1`, which Potency is on record?
**A.** inactive

**Q.** For `O=C(Cn1cc(SCc2ccc(F)cc2)c2ccccc21)N1CCCC1`, which Potency is on record?
**A.** inactive

**Q.** With `COc1ccc(C2=CC(c3ccco3)n3ncnc3N2)cc1` (stereo not drawn) as the compound, how does the Potency read?
**A.** inconclusive: 89.1 µM [inhibitor, single point]

**Q.** With `Cc1nc(NC(=O)c2ccccc2)sc1-c1csc(N)n1` as the compound, how does the Potency read?
**A.** inconclusive: 56.2 µM [inhibitor, partial curve]

**Q.** Which Potency does the source give for `O=C1CCC(C(=O)O)N1` (stereo not drawn) here?
**A.** inactive

**Q.** How did the Potency turn out when `COc1ccc(NC(=S)NCCSc2ccc(Cl)cc2)c(OC)c1` was run?
**A.** inconclusive: 44.7 µM [inhibitor, partial curve]

**Q.** How did the Potency turn out when `COc1ccc(-c2coc3cc(OC)cc(O)c3c2=O)cc1` was run?
**A.** inactive

**Q.** `CC(C)[C@@H]1NC(=O)c2cc([N+](=O)[O-])cc(I)c2NCCC[C@@H](C(N)=O)NC(=O)[C@H](CO)NC1=O` was tested. Which Potency did it give?
**A.** inconclusive: 79.4 µM [inhibitor, single point]

**Q.** Which Potency does the source give for `CC(NC(=O)c1ccco1)C(=O)N1CCN(C(c2ccccc2)c2ccccc2)CC1` (stereo not drawn) here?
**A.** inconclusive: 70.8 µM [inhibitor, single point]

**Q.** How did the Potency turn out when `CCCN(CC(=O)Nc1ccccc1OC)C(=O)c1ccc2c(c1)NC(=O)C(C)S2` (stereo not drawn) was run?
**A.** inactive

**Q.** With `CCC(=S)/C=C1\Sc2ccc3ccccc3c2N1CCCS(=O)(=O)O` as the compound, how does the Potency read?
**A.** inconclusive: 89.1 µM [inhibitor, single point]

**Q.** With `Cc1ccc(-c2cnc(SCC(=O)N3CCCc4ccccc43)n2C)cc1` as the compound, how does the Potency read?
**A.** active: 28.2 µM

**Q.** With `Cc1ccc(NC(=O)Cn2cccc2)c(C)c1` as the compound, how does the Potency read?
**A.** inconclusive: 79.4 µM [inhibitor, single point]

**Q.** Which Potency does the source give for `COc1ccc(NC(=O)CN(C)C(=O)/C=C/c2ccc(OCc3ccccc3)cc2)cc1` here?
**A.** inactive

**Q.** With `CC1CCN(c2ccc(C(=O)NCc3ccc4c(c3)OCO4)cc2[N+](=O)[O-])CC1` as the compound, how does the Potency read?
**A.** inconclusive: 25.1 µM [inhibitor, full curve]

**Q.** How did the Potency turn out when `O=C(c1cccc(-n2cnnn2)c1)N1CC=C(c2ccccc2)CC1` was run?
**A.** inconclusive: 56.2 µM [inhibitor, partial curve]

**Q.** Which Potency does the source give for `CC(=O)NNC(=O)CCn1c2c(c3ccccc31)CCCC2` here?
**A.** inconclusive: 70.8 µM [inhibitor, single point]

**Q.** For `O=C(CCN1C(=O)/C(=C/c2ccc(Cl)cc2)SC1=S)Nc1cccc(C(=O)O)c1`, which Potency is on record?
**A.** active: 31.6 µM

**Q.** Which Potency does the source give for `CN(C)c1ccc(C2C3C(=O)NC(=O)C3ON2c2ccc(Cl)cc2)cc1` (stereo not drawn) here?
**A.** active: 50.1 µM

**Q.** How did the Potency turn out when `Cc1ccccc1OCCn1cnc2c(N)ncnc21` was run?
**A.** inactive

**Q.** For `Cc1cc(C)c(NS(=O)(=O)c2ccc3c(c2)NC(=O)CCS3)c(C)c1`, which Potency is on record?
**A.** inconclusive: 56.2 µM [inhibitor, partial curve, poor fit]

**Q.** How did the Potency turn out when `Cc1cccc(NC(=O)C(CC(C)C)NC(=O)C2CCC(C)CC2)n1` (stereo not drawn) was run?
**A.** inactive

**Q.** How did the Potency turn out when `CCCN1C(=O)c2cc(C(=O)O)ccc2C1O` (stereo not drawn) was run?
**A.** active: 56.2 µM

**Q.** Which Potency does the source give for `COc1cccc(CNC(=O)[C@H](CCSC)NC(=O)N2CCn3c2nc2ccccc23)c1` here?
**A.** inconclusive: 79.4 µM [inhibitor, partial curve]

**Q.** Which Potency does the source give for `CC(=C/c1ccccc1)/C=C1/SC(N2CCOCC2)=NC1=O` here?
**A.** inconclusive: 89.1 µM [inhibitor, single point]

**Q.** `Nc1nc(C(F)(F)F)cc(=O)[nH]1` was tested. Which Potency did it give?
**A.** inactive

**Q.** With `C/C(=N/NC(=O)c1cc(O)c(O)c(O)c1)c1ccc([N+](=O)[O-])cc1` as the compound, how does the Potency read?
**A.** active: 39.8 µM

**Q.** For `N#Cc1nc(-c2ccc(OCc3ccc(Cl)cc3)cc2)oc1NCCCn1ccnc1`, which Potency is on record?
**A.** inconclusive: 44.7 µM [inhibitor, partial curve]

**Q.** Which Potency does the source give for `Cc1cccc2nc(-c3ccco3)c(Nc3ccccc3)n12` here?
**A.** active: 39.8 µM

**Q.** For `COc1ccc(N=CC=C2OC(C)(C)C(C)(C)O2)cc1OC`, which Potency is on record?
**A.** inconclusive: 79.4 µM [inhibitor, single point]

**Q.** How did the Potency turn out when `COc1cccc2c1C(=O)c1ccc3ccccc3c1C2=O` was run?
**A.** inconclusive: 35.5 µM [inhibitor, single point]

**Q.** Which Potency does the source give for `CCOC(=O)C1CCCc2c1[nH]c1c(C(N)=O)cccc21` (stereo not drawn) here?
**A.** inconclusive: 50.1 µM [inhibitor, partial curve]

**Q.** Which Potency does the source give for `COC(=O)c1sc2ccccc2c1-n1cccc1C(=O)C(=O)Nc1ccc(OC)cc1` here?
**A.** inconclusive: 79.4 µM [inhibitor, single point]

**Q.** For `CN(C)c1ccc(C(=O)Nc2ccc(O)c3c(=O)cc(-c4ccccc4Cl)oc23)cc1`, which Potency is on record?
**A.** inconclusive: 44.7 µM [inhibitor, partial curve]

**Q.** For `COc1ccc(-n2sc3c(c2=S)-c2cc(OC)ccc2NC3(C)C)cc1`, which Potency is on record?
**A.** active: 11.2 µM

**Q.** With `C=C(C)CN=C1SC(C(=O)Nc2sc3c(c2C(=O)OC)CCC3)C(N)=C1C(N)=O` (stereo not drawn) as the compound, how does the Potency read?
**A.** inconclusive: 70.8 µM [inhibitor, single point]

**Q.** How did the Potency turn out when `COc1ccc(N2CCN(CCCNC(=O)C3CCC(CNc4nc(=S)[nH]c5ccccc45)CC3)CC2)cc1` (stereo not drawn) was run?
**A.** inconclusive: 25.1 µM [inhibitor, full curve, poor fit]

**Q.** How did the Potency turn out when `CCOC(=O)CC(=O)c1[nH]c(C)c(C(=O)OCC)c1C` was run?
**A.** active: 79.4 µM

**Q.** `O=C(NCCCN1CCOCC1)c1ccc2ccccc2c1` was tested. Which Potency did it give?
**A.** inconclusive: 89.1 µM [inhibitor, single point]

**Q.** For `COCCNC(=O)c1ccc(CN2CCC(Cc3ccccc3)CC2)cc1`, which Potency is on record?
**A.** inconclusive: 89.1 µM [inhibitor, single point]

**Q.** With `Cc1ccnc2c1ccc1cccnc12` as the compound, how does the Potency read?
**A.** active: 2.82 µM

**Q.** How did the Potency turn out when `Cc1cccc(Cn2c(CNC(=O)c3ccccc3)nc3ccccc32)c1` was run?
**A.** inactive

**Q.** `COc1ccc(N2CCN(C(=O)c3ccc(CS(=O)(=O)c4ccc(OC)cc4)o3)CC2)cc1` was tested. Which Potency did it give?
**A.** inconclusive: 89.1 µM [inhibitor, single point]

**Q.** With `COc1cc(/C=C2\COC/C(=C\c3ccc(O)c(OC)c3)C2=O)ccc1O` as the compound, how does the Potency read?
**A.** inconclusive: 50.1 µM [inhibitor, partial curve]

**Q.** `Oc1ccc(N2CCN(Cc3ccc(OCCCN4CCCCC4)cc3)CC2)cc1` was tested. Which Potency did it give?
**A.** active: 10 µM

**Q.** With `COc1ccc(/C=C/C(=O)N2CCC(c3nc4ccccc4o3)CC2)cc1OC` as the compound, how does the Potency read?
**A.** inactive

**Q.** With `COc1ccc(OCC(=O)N2CCN(C(=O)c3cc(OC)c(OC)c(OC)c3)CC2)cc1` as the compound, how does the Potency read?
**A.** inactive

**Q.** `Cc1cc(C)cc(NS(=O)(=O)c2ccc(-c3cnc(C4CC4)o3)cc2)c1` was tested. Which Potency did it give?
**A.** inconclusive: 44.7 µM [inhibitor, partial curve]

**Q.** For `CCS(=O)(=O)N1Cc2ccccc2CC1C(=O)Nc1ccc(F)c(F)c1` (stereo not drawn), which Potency is on record?
**A.** inactive

**Q.** How did the Potency turn out when `CCOc1ccccc1NC(=O)N(C)CCc1c(C)nn(CC)c1C` was run?
**A.** inactive

**Q.** How did the Potency turn out when `NNC(=O)c1csc(-c2cccc(C(F)(F)F)c2)n1` was run?
**A.** inactive

**Q.** Which Potency does the source give for `COc1cc2c(cc1NCc1ccccn1)oc1ccccc12` here?
**A.** active: 44.7 µM

**Q.** For `Cc1ccc(C)c(S(=O)(=O)N2CCN(C(=O)c3ccc(N4CCCC4)c([N+](=O)[O-])c3)CC2)c1`, which Potency is on record?
**A.** inconclusive: 20 µM [inhibitor, full curve]

**Q.** Which Potency does the source give for `C/C(=N/NC(=O)CNC(=O)c1ccncc1)c1ccc(Cl)cc1` here?
**A.** inactive

**Q.** Which Potency does the source give for `Cc1ccc(Oc2nc3c(c(=O)n(Cc4ccccc4)c(=O)n3C)n2C)cc1C` here?
**A.** inconclusive: 11.2 µM [inhibitor, full curve]

**Q.** `COc1cccc(-c2ccnc3c(-c4ccc(F)cc4)c(C)nn23)c1` was tested. Which Potency did it give?
**A.** inactive

**Q.** How did the Potency turn out when `Cc1ccc(S(=O)(=O)N(C(=O)c2ccncc2)c2ccc3oc4c(c3c2)CCCC4)cc1[N+](=O)[O-]` was run?
**A.** inconclusive: 15.8 µM [inhibitor, full curve, poor fit]

**Q.** Which Potency does the source give for `CCN(C(=O)C1CCC(CNS(=O)(=O)c2cccc3nsnc23)CC1)c1ccccc1` (stereo not drawn) here?
**A.** inconclusive: 79.4 µM [inhibitor, single point]

**Q.** With `c1ccc(CCn2nnnc2C(c2cccs2)N2CCN(Cc3ccc4c(c3)OCO4)CC2)cc1` (stereo not drawn) as the compound, how does the Potency read?
**A.** inconclusive: 44.7 µM [inhibitor, partial curve]

**Q.** For `COc1cc2c(cc1OC)C1O[C@](CCCCN3C(=O)c4ccccc4C3=O)(C2)OC2=C1C(=O)CCC2`, which activity change, negative = inhibition is on record?
**A.** inactive: -20.2% [at 22.9 µM]

**Q.** `O=C(NCc1n[nH]c(=S)n1-c1ccc([N+](=O)[O-])cc1)c1ccc(S(=O)(=O)N2CCOCC2)cc1` was tested. Which Potency did it give?
**A.** inactive

**Q.** For `OC(CN1CCN(Cc2ccccc2)CC1)Cn1c2ccccc2c2ccccc21` (stereo not drawn), which Potency is on record?
**A.** inconclusive: 44.7 µM [inhibitor, partial curve]
